The results in this text go back to the RNAGym collection of RNA variant scans (doi:10.1101/gad.245936.114).

Variants at the background level are over-represented here.

B1: tRNA (parent)
chain: CUCUCGGUAGCCAAGUUGGUUUAAGGCGCAAGACUUUAAUUUAUCACUACGAAAUCUUGAGAUCGGGCGUUCGACUCGCCCCCGGGAGAUUUUUUCCUCGAGCAA

In this data set the parent is B1. In words: nonsense suppression (GFP-seq) (ratio to wild type); higher = more function; SUP4oc tRNA, yeast GFP reporter sort-seq. In short, it runs like this: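 Sorted GFP/RFP bins of yeast were each Illumina-sequenced with a phred ≥30 cutoff; the cells held a genome-integrated ochre-suppressor tRNA variant from a library with ~3% random mutations, a galactose-driven GFP ochre reporter, and RFP. Culture was in raffinose/galactose medium containing 80 mg/L adenine. Nonsense suppression, termed GFPSEQ, is the median GFP/RFP of the bins weighted by each variant's estimated cell share per bin, relative to the unmutated parent tRNA, for variants reaching ≥100 reads and ≥30 cells.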
As to CUAUCGGUAGCCAAGUUGGAUUAAGGCGCAAGACUUUAAUUUAUCACUACGAAAUCUUGAGAUCGGGCGUUCGACUCGCCCCCGGGAGAUUUUUUCCUCGAGCAA, the nonsense suppression was not above 0.026. Then CUCUCGGUAGCCAAUUUGGUUUAAGGCGCAAGACUUUAAUUUAUCACUACGAAAUCUUGAGAUCGGGCGUUCGACUCGCCCGCGGGAGAUUUUUUCCUCGAGCAA, with not above 0.026; and CCCUCGGUAGCCAAGUUGGUUUAAGGCGCAAGACUUUAAUUUAUCACUACGAAAUCUUGAGAUAGGGCGUUCGACUCGCCCCCGGGAGAUUUUUUCCUCGAGCAA, with not above 0.026. Then CUCUCGGUAGCCGAGUUGGUUUAAGGCGCAUGACUUUAAUUUAUCACUACGAAUUCUUGAGAUCGGGCGUUCGACUCGCCCCCGGGAGAUUUUUUCCUCGAGCAA, with not above 0.026. As for CUCUCGGUAGCCAAGUUGGCUUAAGGCGCAAGACUUUAAUUUAUCACUACGAAAUCUUGAGAUCGGGCGUUCGACUCGCUCCCGGGAGAUUUUUUCCUCGAGCAA, the figure is 0.036.

For CUCUCGGUAGCCAUGUUUGUUUAAGGCGCAAGACUUUAAUUUAUCACUACGAAAUCUUGAGAUCGGGCGAUCGACUCGCCACCGGGAGAUUUUUUCCUCGAGCAA, the nonsense suppression was not above 0.026. Then CUCUCGGUAGCCAAGUUGGUUUAAGGCGCAAGACUUUAAUUUAUCACUACGAAAGCUUGAGUUCGGACGUUCGACUCGCCCCCGGGAGAUUUUUUCCUCGAGCAA, with not above 0.026; and CGCUCGGUAGCCAAGUUAGUUUACGGCGCAAGACUUUAAUUUAUCACUACGAAAUCUUGAGAUCGGGCGUUCGAGUCGCCCCCGGGAGAUUUUUUCCUCGAGCAA, with not above 0.026.

On to CUCUCGGUAGCCUAGUUGGUUUAAGGCGCAAGACUUUAAUUUAUCACUACGAAAUCUUGAGAUCGGGCGUUCGACUCGACCCCUGGAGAUUUUUUCCUCGAGCAA, for which the nonsense suppression is not above 0.026.

For CUCUCGGUAGCCAAGUUGGUUAAAGGCGCAAGAUUUUAAUUUAUCACUACGAAAUCUUGAGAUCGGGCGUUCGACUCGCCCCCCGGAGAUUUUUUCCUCGAGCAA, the nonsense suppression is not above 0.026. As for CGCUUGGUAGCCAAGAUGGUUUAAGGCGCAAGACUUUAAUUUAUCACUACGAAAUCUUGAGAUCGGGCGUUCGACACGCCCCCGUGAGAUUUUUUCCUCGAGCAA, the figure is not above 0.026. Then CUCUCGGUAGCCCAGUUGGUUUAAGGCGCAAGACUUUAAUUUAUCACUACGAAAUCUUGAGAUCGGGCGUUCGACUCGCCCCCGGGAUAUUUUUUCCUCGAGCAA, with not above 0.026; and CUCUCGGUAGCCAAGUUGGUUUAAGGCGCAAGACUUUAAUUUAUCACUACGAAAGCUUGAGAUCGGGCGUUCGCCUCGCCGCCGGGAGAUUUUUUCCUCGAGCAA, with not above 0.026. CUCUCGGUAGCCAAGUUGGUUUAAGGCGCAAGACUUUAAUUUAUCACUACGAAAUCUUGAGAUCGGGCGAUCGACUCGCCCCCGGAAGAUUUUUUCCUCGAGCAA: the nonsense suppression was not above 0.026.

With CUCUCGGUAGCCAAGUUGGUUUAAGGCACAUGACUUUAAUUUAUCACUACGAAAUCUUGAGAUCGAGCAUUCGACUCGCCCCCGGGAGAUUUUUUCCUCGAGCAA, the nonsense suppression was not above 0.026.

Turning to CUCUCGGUAGCCAAGUUGGUUUAAGGCGCAAGACUUUAAUUUAUCACUACGAAUUCUUGAGAUCGGGCGUUCGACUCGCCCCCGGGAGCUUUUUUCCUCGAGCAA, the nonsense suppression was not above 0.026. CUCUCUGUAGCCAAGUUGGUUUAAGGCGCAAGACUUUAAUUUAUCACUACGAAAUCUUGAGAUCGGGCGUUCGACUCGCCCCCGGGAGAUUUUUUCCUCGAGCAA: the nonsense suppression was not above 0.026. Consider CUUUCGGUAGCCAAGUUGGUUUAACGCGCAAGACUUUAAUUUAUCACUACGAAAUCUUGAGAUCGGGCGUUCAACUCGCCUCCGGGAGAUUUUUUCCUCGAGCAA, for which the nonsense suppression was not above 0.026.

As for CUCUCGGUAGCCAAGUUGGUUUAAGGCGGAAGACUUUAAUUUAUCACUACGAAAUCUUGAGAUCGGGCGUUCCACUCGCCCCCGGGAGAUUUUUUCCUCGAGCAA, the nonsense suppression is not above 0.026. Then CUCUCGGUAGCCAAGUUGGUUUAAGGCGCAAGACUUUAAUUUAUCACUACGAAAUCUUGAGAUCGGGCGCUCGCCUCGCCCCCGGGAGAUUUUUUCCUCGAGCAA, with not above 0.026; and CUCUCGGUAGCCAAGUUGGUUUAAGGCGCAGGACGUUAAUUUAUCACUACGAAAUCUUGAGAUCGGGCGUUCGACUGGCCCCCGGGAGAUUUUUUCCUCGAGCAA, with not above 0.026. As for CUCUCGGUAGCCAAGUUGGUUUACGGCGCAAGACUUUAAUUUAUCACUACGAAAUCUUGAGAUCGGGCGUUCGACUCCCCCCCGGGAGAUUUUUUCCUCGAGCAA, the figure is not above 0.026.

For CUCUCUGUAGCCAAGUUGAAUUAAGGCGCAAGACUUUAAUUUAUCACUACGAAAUCUUGAGAUCGGGCGUUCGACUCGCCCCCGGGAGAUUUUUUCCUCGAGCAA, the nonsense suppression was not above 0.026. Consider CUAUCGGUAGCCAAGUUGGUGUAUGGCGCAAGACUUUAAUUUAUCACUACGAAAUCUUGAGAUCGGGCGUUCGACUCGCCCCCGGGAGAUUUUUUCCUCGAGCAA, for which the nonsense suppression is not above 0.026. Then CUCUCCAUAGCCAAGUUGGUUUAAGGCUCAAGACUUUAAUUUAUCACUACGAAAUCUUGAGAUCGGGCUUUCGACUCGCCCCCGGCAGAUUUUUUCCUCGAGCAA, with not above 0.026; and CUCUCGGUCGCCAAGUUGGUUUGAGGCGCAAGACUUUAAUUUAUCACUACGAAAUCUUGAGAUCGGGCGUUCGACUCGCCCCCGGGAGAUUUUUUCCUCGAGCAA, with 0.0661; and CUCUCGGUAGCCAAGUUUGUUAAAGGCGCAAGACUUUAAUUUAUCACUACGAAAUCUUGAGAUCGGGCGUUCGACUCGCCCCCGGGAGAUUUUUUCCUCGAGCAA, with not above 0.026.
